# Data reported in the supplement of paper PMC3334620.
# Over roughly 33,000 sequences, “E-score (-0.5 to 0.5)” has its median near -0.016; the highest 2% begin near 0.31. This is one part of the list.
# Molecular target: Cst6 (UniProt P40535)
# Test: PBM E-score (8-mer binding enrichment) (E-score (-0.5 to 0.5)); higher = stronger / more preferred TF binding; most listed sequences are background and not binding sites
# Settings: protein concentration: 200 nM; construct: GST-DNA-binding domain
# How it was run: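 Each ungapped eight-base word and its reverse complement, pooled, received an E-score from the Universal PBM Analysis Suite. Underlying scans, normalised with masliner, recorded fluorescent anti-GST bound to GST-tagged yeast transcription factors. These were applied at about 100-200 nM to universal all-10-mer Agilent arrays double-stranded by primer extension.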
row,Sequence,PBM E-score
1,GAGCGGGA,-0.034
2,AAATTATA,0.278
3,CATCTGGC,0.0259
4,CCGGAAGG,-0.278
5,AACTATGC,0.155
6,CTTTAACC,-0.0766
7,ACGTTGAG,0.0822
8,AAGCCAAA,0.0153
9,CATAGCCC,-0.238
10,ATAAACTG,0.0725
11,TAGAATAA,0.184
12,ACACTATG,0.0583
13,ACTTGTAT,0.0477
14,GGGCAACC,-0.275
15,AGCTCAAG,-0.148
16,CTATAGGC,-0.261
17,CTTGAAAG,-0.112
18,CCACCGAG,-0.204
19,GCGCGAGC,-0.111
20,CATATTTC,0.0963
21,CCGATTGC,0.0379
22,CAACAATG,0.145
23,CGTTCCCA,-0.241
24,CCCCATAG,-0.249
25,GTGGACAC,-0.0948

row,Sequence,PBM E-score
1,AGCATCAG,-0.0733
2,ATAGTCCA,-0.143
3,CCGTCGAA,0.0203
4,AAATATTA,0.286
5,ACGAGGTA,-0.067
6,ATCAATCC,0.0761
7,GCACGCGA,-0.0776
8,CTAAGTCC,-0.345
9,GGGGTGAC,0.284
10,CTGAGTTC,-0.0293
11,CTCACTCC,-0.0217
12,TACCCAAA,-0.006
13,CCGCAAAC,-0.00407
14,CCCTCGGC,-0.299
15,GAGTCTCC,-0.305
16,CAAATCTA,0.094
17,GCAAACAC,-0.0955
18,CTGTTCTC,-0.118
19,CGCGAACC,-0.159
20,AAGTTTTC,0.126
21,CGACAAAG,0.168
22,ATTCCTGC,0.108
23,GCACTACC,0.00421
24,AGGTAACA,0.146
25,GAATGAAC,0.0495

row,Sequence,PBM E-score
1,GCAATCCC,-0.0135
2,AAGCAGCG,-0.0975
3,ACAGTCGA,-0.102
4,AAAAGAAA,0.152
5,GAACCCGA,-0.197
6,CAGAACGC,-0.152
7,CTGCTTAC,0.00293
8,AGCCCACG,-0.106
9,ACAACAGC,0.133
10,AGTTCTGA,0.0643
11,CGCGTATC,0.0728
12,ATTCCGGG,-0.144
13,AGGTAATC,0.0388
14,AAAGGGCA,0.0801
15,ATAAGACA,0.0938
16,CAACTTCA,0.0717
17,TGGGAACA,-0.195
18,CATGAAGA,0.0998
19,AAGGGAGT,-0.222
20,GTCCTATA,-0.151
21,AGACGAAG,-0.117
22,AAATGCAA,0.037
23,CGACGATA,0.0441
24,AACGTGGA,0.0571
25,ACGCAAAG,0.131

row,Sequence,PBM E-score
1,AAAGTCCT,-0.124
2,GTGTCTAA,-0.00726
3,ACGACTTG,-0.223
4,AGGATCAA,0.0899
5,ATAATCTG,0.0267
6,AAATCCCT,-0.0649
7,ACCCCACC,0.159
8,CAAGATCA,-0.0132
9,CGACTCAG,-0.135
10,ACTTACTA,0.0502
11,CTTTCTAA,0.149
12,ATACCCCA,-0.0525
13,AGCGGCTC,0.204
14,AATCTGGA,0.0109
15,GGCCATAA,-0.21
16,CCGGATAC,-0.183
17,AATACATC,0.172
18,CGAGAGAG,-0.0538
19,GGCGGCCC,-0.351
20,AACATTCA,-0.0612
21,GTCGTTGA,0.0702
22,CCATTAGG,-0.202
23,CGAACGAG,-0.108
24,AATACGAC,0.0982
25,ACCTCACA,0.00428

row,Sequence,PBM E-score
1,CACCGCGG,-0.0133
2,ACCTCGAG,0.1
3,CATTATTA,0.253
4,CCTTAAAC,-0.0906
5,CGGACCGA,-0.0526
6,TGGGGACA,-0.191
7,GAGTCTCA,-0.292
8,AGACATTA,-0.0766
9,CAAAGGCG,-0.0672
10,ATTGTGAA,0.099
11,GCAAGGTA,0.00022
12,CAGCCCCA,-0.163
13,CCTATGAA,-0.17
14,GGATACAA,0.0721
15,CCCGAGGC,-0.215
16,ATGCCAAG,0.0101
17,CCAACTCG,-0.0873
18,ACGGGTTA,-0.184
19,CCTGCCGA,-0.293
20,TCCATAGA,-0.201
21,GTACACTA,-0.127
22,CTATGGCC,-0.271
23,CCCGGGAC,-0.291
24,TCACAAAA,0.256
25,CTTGTGTC,0.0256

row,Sequence,PBM E-score
1,CCCTGGAA,-0.325
2,AGCACGGA,-0.146
3,ACACACCC,-0.0768
4,TGGATAAA,0.0202
5,ACGTATCC,0.0374
6,CGTTGTCC,0.126
7,AGGTTCAT,-0.193
8,CGTAACTC,0.208
9,CATACCAC,0.0173
10,CCGCGTGC,-0.00633
11,GATTAAAA,0.242
12,CACATGGC,0.0183
13,AGAAGACC,-0.0866
14,ACAAATGG,0.121
15,CTGTACTA,0.155
16,CTACACGC,-0.263
17,AAGTTACA,0.175
18,TAGTGTGA,0.128
19,AGTCGCGA,-0.00441
20,AGCTATCC,-0.206
21,CGAGTAGA,-0.0314
22,ACAAAATC,0.219
23,ACTTGATG,0.205
24,GGGAATCA,-0.161
25,CAAAGCCG,-0.00593

row,Sequence,PBM E-score
1,ACAAAAGT,0.164
2,TAAAGGCA,0.146
3,AAGGGACG,-0.216
4,GAAGTAGC,-0.0862
5,AACCACAT,0.162
6,GATGGGGA,-0.334
7,GTGGCCAA,0.00877
8,GGCCTTTA,-0.15
9,ACCTGCGT,-0.059
10,CGCATACG,0.159
11,CCTTAAGG,0.0391
12,GGGTTGAA,-0.116
13,ATCAGTCC,-0.333
14,CGCTAGGA,-0.047
15,TATGTGAA,0.0102
16,GCCTAACC,-0.159
17,CAAAGTCC,-0.204
18,TAGAGTAA,0.121
19,AGATCAAG,0.083
20,AAGGTTCG,-0.124
21,GTTGGCAA,0.0281
22,CCGTGTCC,0.0181
23,ACGTATCA,0.26
24,CCAGGTAA,-0.113
25,AACTAATA,0.336

row,Sequence,PBM E-score
1,CAGCGCCG,0.146
2,CCCCTTCG,-0.211
3,GCACATAA,0.0294
4,CCAGGTAC,-0.278
5,AACCTGCC,-0.147
6,CGGAGAAA,-0.0341
7,CAGCAGAC,-0.14
8,CTATAGCC,-0.249
9,CGGTGCAC,-0.15
10,ACTATTCA,0.117
11,AAGCGCTT,0.169
12,CCGTATAC,-0.015
13,CCGAGACA,-0.083
14,ATCCGGTG,-0.00686
15,CATGGCCC,-0.129
16,TCCGTTAA,0.136
17,CGGTTCCC,-0.214
18,GGGACAAA,-0.0226
19,CTCCAGAC,-0.158
20,TAGGTTAA,0.102
21,CAACCGCC,-0.0607
22,CTTATGTC,0.105
23,GACTTTCA,-0.0832
24,GACAACCC,-0.166
25,AGCGGATG,-0.167

row,Sequence,PBM E-score
1,ATACACGG,0.127
2,TGATAGCA,0.0573
3,CTGTCCGC,-0.0972
4,AAATGATA,0.304
5,ATGTAAAT,0.309
6,AGGGGCCC,-0.101
7,GCACAAGC,-0.0487
8,CTAATTAG,0.132
9,AGAGCTAC,0.0197
10,ATTCAGAA,0.113
11,CGGCACTC,0.0818
12,CCGAAGGA,-0.11
13,CACGATCC,-0.0466
14,ATTCTGTC,0.0249
15,ACATAGCT,-0.263
16,GTCTCTGA,0.0019
17,CGCTTTAA,0.0171
18,AATGTCAC,0.308
19,GAGAGACC,-0.238
20,ACGTCCGC,0.0176
21,ACTCGAAA,0.0948
22,TACATCTA,0.0515
23,ACAACCGT,-0.0371
24,ACAACCTA,-0.0481
25,ACATGGCC,0.00199

row,Sequence,PBM E-score
1,TTGACCAA,0.0011
2,ACGAGTCG,-0.0969
3,CGAAGGAG,-0.0144
4,CGTAACAA,0.295
5,ATAAACTA,0.196
6,GACGCGGC,0.318
7,CAAGCGGC,0.283
8,ACTTGACA,0.0826
9,CTCTTTAC,0.00324
10,CGACGTTA,0.23
11,ACTACGGC,0.0668
12,TCACTTAA,0.109
13,ACCATTAG,-0.0421
14,GTAATACA,0.234
15,ATATTGAC,0.13
16,AAGCCCCT,-0.335
17,GTTGTCAA,0.0505
18,GGAATACC,-0.28
19,AGAAAACC,-0.0485
20,GCTATTAA,0.159
21,CCCGGTCA,-0.271
22,GCACATGA,0.018
23,GTTCTGGA,-0.0183
24,AATGGATG,0.0722
25,ACAGGTAA,0.0752

row,Sequence,PBM E-score
1,ACACAACA,0.0731
2,AATGTTTC,-0.0286
3,TCCCGAAA,0.045
4,AATCGCCA,-0.0227
5,AGTGGTAT,0.022
6,TCAAGGAA,0.102
7,AAGAGTGC,-0.126
8,ACAAGTAT,0.131
9,AATTTGGT,0.114
10,ATGCTCCG,-0.185
11,ACCACCCA,0.0252
12,AGACTTAC,-0.0105
13,AAGTAAGC,0.0657
14,CCGAGGTC,-0.309
15,TCTCCTCA,-0.162
16,GGAGTCTA,-0.28
17,ATCCTTAA,0.00761
18,GAGTCCGA,-0.0585
19,GCCTAAGA,-0.104
20,GTGACTAA,0.179
21,ACCCACGA,-0.0914
22,GAGGCTGA,-0.0653
23,ATATCTCA,0.188
24,GGCGAGTA,-0.126
25,TACGAGTA,0.109

row,Sequence,PBM E-score
1,CTCGTCCC,-0.0813
2,CTCCAGCC,-0.141
3,ATTATTTG,0.259
4,ACCTTTCG,-0.124
5,CTTCCCAA,-0.102
6,GATATAAC,0.16
7,GTGGGGGA,-0.302
8,ATCACCCG,-0.00679
9,CGATTGGC,-0.00755
10,TAGCGGCA,0.0681
11,GGGAGGAA,-0.147
12,AAACCAGC,-0.0742
13,GAAGTGGA,-0.16
14,CGATTCCG,-0.0634
15,CTCGTAGA,-0.221
16,AGCTTACA,0.179
17,AAACTATC,0.0274
18,ACATCATC,0.462
19,CTGGGTGC,-0.186
20,GGCCAATA,-0.0143
21,ACCGGCGA,-0.0605
22,CTCTATAA,0.153
23,ATAAGCAC,0.117
24,CATATAGG,-0.0567
25,TACTGACA,0.0617

row,Sequence,PBM E-score
1,ACTGTGAT,0.0871
2,GTACGCCA,-0.0921
3,CTGACTAC,0.0278
4,ACTAAACG,0.0597
5,GAGAGCTA,-0.0455
6,AACGACGA,0.0645
7,GAAGATGA,0.0745
8,ACCGTACA,0.0188
9,ATGAATGA,0.244
10,GGAAAGCC,-0.0191
11,CCCATGAG,-0.15
12,GTCCCTTA,-0.0674
13,ATTGGCCA,-0.114
14,TGGTGCAA,-0.0475
15,GGAGTATA,0.0353
16,GACCTCCA,-0.089
17,TCCGGCGA,-0.0619
18,CCGGACAA,-0.147
19,AACGCGGC,0.261
20,CGGTCTTC,-0.0638
21,GTGATCGA,0.0857
22,AACAAGGG,-0.057
23,ATATTTCA,0.155
24,CTCCCAAA,-0.0435
25,AAGATCTG,0.0483

row,Sequence,PBM E-score
1,CGCATCAA,0.141
2,AAAATGGT,0.154
3,AAACAAAC,0.154
4,GGCTCATA,-0.038
5,CATTCCGA,0.0913
6,CTGATAGC,-0.126
7,CAAATCAG,0.122
8,GGGGCCCA,-0.204
9,TACGACGA,0.0201
10,ACCCCAAA,-0.0546
11,CCTAAATA,0.0813
12,AGCACCTC,-0.2
13,ACTCAACG,0.0233
14,ACTTAAGG,0.0959
15,ACGGCGCT,0.251
16,ATAGGTGG,-0.146
17,ATTGACCC,-0.0592
18,TATCGGGA,-0.165
19,AGTTAGTG,0.0727
